The list shows a part of the results. Values were computed here from the reads of four pooled replicates and scatter widely.
Target: T1, Pho4 (S. cerevisiae) (UniProt P07270)
T1 sequence: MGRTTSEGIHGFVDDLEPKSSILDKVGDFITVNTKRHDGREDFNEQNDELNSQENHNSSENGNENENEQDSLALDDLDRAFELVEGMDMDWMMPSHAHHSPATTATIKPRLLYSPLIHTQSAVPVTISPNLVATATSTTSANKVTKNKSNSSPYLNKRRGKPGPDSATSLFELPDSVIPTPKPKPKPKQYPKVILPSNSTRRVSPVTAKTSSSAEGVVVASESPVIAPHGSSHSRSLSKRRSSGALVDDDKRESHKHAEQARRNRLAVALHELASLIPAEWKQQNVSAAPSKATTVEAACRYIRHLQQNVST
Assay: relative binding free energy (BET-seq); higher = weaker binding
Settings: reference: library average

Sequence	relative binding free energy
ATTATCACGTGGTTCG	0.22 kcal/mol
CGGTGCACGTGTTGTT	0.01 kcal/mol
GAGTCCACGTGGTGGT	0.12 kcal/mol
ATGGACACGTGATGGA	0.04 kcal/mol
TGATGCACGTGGATGG	-0.08 kcal/mol
GTGTGCACGTGAATGG	0.18 kcal/mol
AGATTCACGTGGTGTA	0.1 kcal/mol
TGTTACACGTGATCTT	0.08 kcal/mol
GTTTACACGTGAAAGT	0.34 kcal/mol
CTATACACGTGGGGAG	-0.12 kcal/mol
GTGATCACGTGGTGCG	0.14 kcal/mol
GATCTCACGTGGGCGG	0.14 kcal/mol
CTTATCACGTGGGGTT	-0.02 kcal/mol
TGTATCACGTGTCAGT	0.17 kcal/mol
TTCGTCACGTGTTTGG	0.13 kcal/mol
GAATTCACGTGTGGGT	0.31 kcal/mol
AGTGTCACGTGGTAAA	0.06 kcal/mol
AGGGGCACGTGTTGTA	-0.07 kcal/mol
ATAAACACGTGATTTT	0.13 kcal/mol
TGGTGCACGTGAACAT	0.14 kcal/mol
ATTTGCACGTGTGCTT	-0.04 kcal/mol
GTGTACACGTGCTGGT	0.1 kcal/mol
TTGTTCACGTGTTGCT	0.22 kcal/mol
ATAGTCACGTGCCGGT	0.02 kcal/mol
AGAGTCACGTGGTGGA	0.14 kcal/mol
ATTTTCACGTGTTGGC	0.31 kcal/mol

Sequence	relative binding free energy
AAGGCCACGTGCGTGG	-0.09 kcal/mol
AAGTTCACGTGTAGGT	0.32 kcal/mol
TGTTTCACGTGGTCGC	0.18 kcal/mol
CAAGTCACGTGGGGGT	-0.05 kcal/mol
CATAGCACGTGGATTG	0.14 kcal/mol
TAGTTCACGTGAGGAA	0.27 kcal/mol
GTTCTCACGTGGGTGG	0.21 kcal/mol
TAACGCACGTGGGGGA	-0.23 kcal/mol
TTCAACACGTGTTTGT	-0.09 kcal/mol
TGATTCACGTGTGTGA	0.2 kcal/mol
TGGTGCACGTGTGTGG	0 kcal/mol
AGGTCCACGTGTGGTG	0.04 kcal/mol
TGTGGCACGTGATTTT	0.13 kcal/mol
GATATCACGTGAATGG	0.33 kcal/mol
TGCATCACGTGATGAG	0.22 kcal/mol
TAGGTCACGTGGCGCT	-0.02 kcal/mol
TAGTTCACGTGGGAAA	0.23 kcal/mol
CAATTCACGTGAGGAT	0.51 kcal/mol
ATTCACACGTGGGAGG	-0.14 kcal/mol
AAGTGCACGTGGGGCG	-0.17 kcal/mol
AGTTGCACGTGTTTCT	-0.01 kcal/mol
GATTGCACGTGACTGG	0.11 kcal/mol
CAGGGCACGTGAGGAG	0.1 kcal/mol
CGTTTCACGTGTATGA	0.37 kcal/mol
GGCGGCACGTGAGGTC	0.2 kcal/mol
TGGGTCACGTGAGATT	0.33 kcal/mol

Sequence	relative binding free energy
GGGGACACGTGAGAGG	0.17 kcal/mol
TGTATCACGTGGCCTG	-0.05 kcal/mol
GTTCACACGTGTATGT	0.3 kcal/mol
CTTGACACGTGGAGGA	0.1 kcal/mol
GTGCTCACGTGGGTCG	0.26 kcal/mol
GATAGCACGTGAGGAT	0.24 kcal/mol
TTGGGCACGTGAGAAG	0.33 kcal/mol
AGGGTCACGTGTTACA	0.11 kcal/mol
AGAGACACGTGTGGAT	0.04 kcal/mol
TTTCTCACGTGTTGTT	0.28 kcal/mol
ACTGTCACGTGTGTAA	0.19 kcal/mol
CTGGGCACGTGAGCGG	-0.07 kcal/mol
GAGATCACGTGCGGGT	0.15 kcal/mol
GTTGGCACGTGTTGGC	0.04 kcal/mol
GCTATCACGTGAGGGG	0.26 kcal/mol
TGGTTCACGTGGGTCT	0.22 kcal/mol
TGGGTCACGTGCGTTT	0.02 kcal/mol
AGCGCCACGTGTGGGA	-0.1 kcal/mol
GGGTACACGTGAAAGG	0.23 kcal/mol
AGAGTCACGTGTCGTG	0 kcal/mol
GATAACACGTGGTGGG	0.06 kcal/mol
TATTGCACGTGTGACA	0.08 kcal/mol
TAAGTCACGTGATTCT	0.27 kcal/mol
AGGTACACGTGTGTAA	0 kcal/mol
TTTTACACGTGGAGAT	0.13 kcal/mol
AAGAGCACGTGGTTGA	-0.19 kcal/mol

Sequence	relative binding free energy
TATGGCACGTGGAAAA	0.07 kcal/mol
GGATCCACGTGTGTGG	0.13 kcal/mol
CTGGGCACGTGGAAAG	-0.09 kcal/mol
GGGGTCACGTGAGTGC	0.19 kcal/mol
ACGCTCACGTGGGTGG	0.15 kcal/mol
TGAGTCACGTGTTTGG	0.17 kcal/mol
AGAAGCACGTGGGTAT	-0.19 kcal/mol
GGGTGCACGTGGTGAG	0.01 kcal/mol
TTATGCACGTGTGGGA	0.01 kcal/mol
TATTGCACGTGCTTGT	-0.14 kcal/mol
ATTTCCACGTGTGTTG	0.07 kcal/mol
GAGCGCACGTGTGTTG	-0.04 kcal/mol
TGCATCACGTGATTTG	0.01 kcal/mol
TTTATCACGTGGGGCC	0 kcal/mol
CTGATCACGTGTGGAG	0.17 kcal/mol
TATCTCACGTGGGAGA	0.26 kcal/mol
TTAGACACGTGAGAGA	0.23 kcal/mol
TTGCTCACGTGTGTGA	0.17 kcal/mol
AACTTCACGTGTTGTG	0.25 kcal/mol
ATAAGCACGTGGGTCG	-0.12 kcal/mol
CGTCGCACGTGGTGTG	-0.32 kcal/mol
CTGAGCACGTGTGGGG	-0.07 kcal/mol
ATTACCACGTGATTTG	0.17 kcal/mol
GGCATCACGTGGAAGG	0.19 kcal/mol
ACTTGCACGTGTGGGG	-0.01 kcal/mol
GGTGACACGTGTGAGA	0.16 kcal/mol

Sequence	relative binding free energy
TATAACACGTGGATGG	0.02 kcal/mol
CAATTCACGTGTGTTG	0.24 kcal/mol
TTATACACGTGGGTTT	-0.11 kcal/mol
TGTAACACGTGCGTAG	-0.07 kcal/mol
GTACACACGTGGTTGT	-0.1 kcal/mol
TTAACCACGTGGGAGT	-0.07 kcal/mol
GTAGACACGTGGGTGG	-0.03 kcal/mol
TGGGGCACGTGGTAGA	-0.17 kcal/mol
TCAATCACGTGGTTTG	0.06 kcal/mol
TAAGCCACGTGGGAGG	-0.2 kcal/mol
CGTTGCACGTGGGGAA	0.02 kcal/mol
GTTATCACGTGTGGAT	0.25 kcal/mol
TCGTACACGTGTAAGT	0.16 kcal/mol
AGTGTCACGTGGTGAT	0.07 kcal/mol
TAGTGCACGTGCTATG	-0.04 kcal/mol
GTAGGCACGTGCTAGG	-0.08 kcal/mol
ATGGGCACGTGATGAT	-0.06 kcal/mol
TGATGCACGTGTGACG	-0.04 kcal/mol
AAGATCACGTGATTTT	0.34 kcal/mol
AGAGTCACGTGGGAAA	0.07 kcal/mol
TCATGCACGTGGAGTG	-0.05 kcal/mol
AGGTTCACGTGGAACT	0.41 kcal/mol
TTTTTCACGTGATTTG	0.46 kcal/mol
AGGTACACGTGGTTTA	-0.03 kcal/mol
CGTTGCACGTGGCCGG	-0.11 kcal/mol
ATGTGCACGTGGGGTC	-0.26 kcal/mol

Sequence	relative binding free energy
TTACTCACGTGTGGCA	0.32 kcal/mol
CAGGACACGTGGTGGA	-0.13 kcal/mol
ATGGGCACGTGTTTAG	-0.06 kcal/mol
ATTAGCACGTGTTTTC	-0.07 kcal/mol
TGACGCACGTGAGGAG	0.13 kcal/mol
TATAGCACGTGAATGT	0.09 kcal/mol
TACGACACGTGGGTGT	-0.09 kcal/mol
TATCGCACGTGAGTGG	0.16 kcal/mol
ATAGTCACGTGGATGT	0.06 kcal/mol
TCATTCACGTGGGCTT	0.25 kcal/mol
GGGGGCACGTGTTAAG	-0.06 kcal/mol
TGTGACACGTGGTAGT	-0.03 kcal/mol
AAAGGCACGTGGTTGA	-0.1 kcal/mol
AAGTGCACGTGATTTT	0.1 kcal/mol
AGTTGCACGTGTATGA	-0.01 kcal/mol
TTCAACACGTGGAGAT	0.27 kcal/mol
GTTCGCACGTGGATTG	-0.07 kcal/mol
CTGGTCACGTGAGAAT	0.51 kcal/mol
AATATCACGTGGGATT	0.08 kcal/mol
GTGTGCACGTGAGGGC	0.24 kcal/mol
TTAGACACGTGGTATA	-0.15 kcal/mol
TATAGCACGTGATCTT	0.04 kcal/mol
CTGTACACGTGAGGGA	0.1 kcal/mol
CAGGGCACGTGGAAGT	-0.01 kcal/mol
TTTCGCACGTGGGGAT	-0.12 kcal/mol
TTGCACACGTGGGTGT	0 kcal/mol

Sequence	relative binding free energy
AGTAGCACGTGGTGAA	-0.24 kcal/mol
GATCACACGTGAGGGT	0.25 kcal/mol
GAAGGCACGTGCTAGT	0.03 kcal/mol
CTTGGCACGTGTGGGC	-0.09 kcal/mol
TACTTCACGTGGGTGT	0.07 kcal/mol
AGGTGCACGTGTGTCA	0.04 kcal/mol
TGTAACACGTGGGTTA	-0.25 kcal/mol
CTGAGCACGTGGCGGT	-0.18 kcal/mol
GTAAGCACGTGTGTGT	0.06 kcal/mol
AGGTTCACGTGTGTGC	0.16 kcal/mol
GTGCTCACGTGGGGGC	0.09 kcal/mol
GTTGTCACGTGAGTTC	0.38 kcal/mol
GTGCGCACGTGGGTGG	-0.2 kcal/mol
GCATTCACGTGAGGTT	0.35 kcal/mol
GATGTCACGTGGGAAG	0.04 kcal/mol
GTGAGCACGTGGGGTA	-0.22 kcal/mol
ATTTTCACGTGTAAAT	0.29 kcal/mol
AGGTACACGTGTCGGT	0.04 kcal/mol
TTTTTCACGTGAGTGC	0.42 kcal/mol
AAGGACACGTGTATGT	0.09 kcal/mol
GGTTACACGTGGGGTA	0.1 kcal/mol
ATTTTCACGTGCAAAT	0.34 kcal/mol
GAAGACACGTGGGCTG	0.01 kcal/mol
ACTTGCACGTGGTTTT	0.01 kcal/mol
TATTGCACGTGGTTTC	-0.11 kcal/mol
TAGATCACGTGGGTGC	-0.04 kcal/mol

Sequence	relative binding free energy
TATTCCACGTGGGGCT	0.05 kcal/mol
GTTAGCACGTGAAAGT	0.2 kcal/mol
ACGAGCACGTGGGGCT	-0.22 kcal/mol
ATGTACACGTGGTAAT	-0.05 kcal/mol
TGGCACACGTGGGTTC	-0.03 kcal/mol
GGTCGCACGTGTGATG	0.03 kcal/mol
CAATGCACGTGTGATT	0.15 kcal/mol
TTCGACACGTGCGGTG	0.08 kcal/mol
TTTTGCACGTGTCAGA	0.01 kcal/mol
TCGGGCACGTGAGTGC	0.05 kcal/mol
TATTGCACGTGTTTAG	0.01 kcal/mol
CTTTTCACGTGCTTGT	0.13 kcal/mol
TGGAACACGTGTGTGT	0.02 kcal/mol
TAGGGCACGTGACAGT	-0.13 kcal/mol
TGGTACACGTGAGTAA	0.41 kcal/mol
GTCGACACGTGGAGGT	0.07 kcal/mol
AGCATCACGTGGGGTG	0.03 kcal/mol
AGTGGCACGTGATGTC	-0.09 kcal/mol
AGGGACACGTGTTGCG	0.02 kcal/mol
ATGGGCACGTGGGTGA	-0.19 kcal/mol
ATTAACACGTGAGTTA	0.26 kcal/mol
GTTAACACGTGAGTAA	0.23 kcal/mol
GGATGCACGTGCGGCG	-0.12 kcal/mol
TGGATCACGTGATGTG	0.33 kcal/mol
TCCGGCACGTGGGGGG	-0.16 kcal/mol
CTTTTCACGTGGAGGG	0.16 kcal/mol

Sequence	relative binding free energy
AAGAGCACGTGTTGAG	-0.04 kcal/mol
AGGATCACGTGAGGGG	0.38 kcal/mol
TGGGGCACGTGAAGTT	0.3 kcal/mol
TCTGCCACGTGGGAGG	-0.06 kcal/mol
GGTGTCACGTGGTCAT	0.01 kcal/mol
TACATCACGTGTAGGG	0.25 kcal/mol
GTTTCCACGTGTGAGG	0.09 kcal/mol
TCATGCACGTGGGTCT	-0.14 kcal/mol
TTGGGCACGTGGTACT	-0.21 kcal/mol
AGCGGCACGTGATTGT	0.12 kcal/mol
ATCGTCACGTGTTCTT	0.19 kcal/mol
TGTACCACGTGGTATG	-0.12 kcal/mol
GTGTGCACGTGGGTCG	-0.07 kcal/mol
CAGAGCACGTGCGGGG	-0.28 kcal/mol
TTATGCACGTGATTTA	0.13 kcal/mol
ATTTACACGTGATTGC	0.17 kcal/mol
TCTTGCACGTGTGGTC	0.1 kcal/mol
GGTGTCACGTGAGGGA	0.27 kcal/mol
TTAAACACGTGTAGCG	0.19 kcal/mol
AGATTCACGTGTTTTT	0.21 kcal/mol
GATTTCACGTGATGTG	0.34 kcal/mol
CTGGTCACGTGTATGA	0.02 kcal/mol

Reference: the BET-seq Pho4 binding data (Le et al. 2018)
